Laboratory results reported in PubChem BioAssay AID1466 (National Center for Advancing Translational Sciences (NCATS), 2008).
Among all 200,000 compounds or so, about 10 (0.005%) were called active. The inconclusive results got no clear call from the source; some entries with a clear call stand among them for comparison. Calls follow the shape of the dose curve; as a rule, active = well fitted inhibition curve with a large enough effect; inconclusive = small, poorly fitted or top-dose-only effect, or effect the other way, or another doubt; inactive = no such curve, though single readings can be large or run the other way. A potency beside an inconclusive call is a rough fit, not a confirmed value.

molecular target: Lysosomal alpha-glucosidase (Homo sapiens) (UniProt P10253); experiment: qHTS Assay for Inhibitors of Human alpha-Glucosidase as a Potential Chaperone Treatment of Pompe Disease; conditions: purified human GAA, 4-MU-alpha-glucoside fluorescence; activity change, negative = inhibition: at 76.9 µM (top of the series) unless noted;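 as to activity change, negative = inhibition: plate controls were uninhibited enzyme wells for no effect and no-enzyme background for full effect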
In short: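 Compounds are titrated up to 77 uM against 4 nM human enzyme. Substrate 4-methylumbelliferyl-alpha-D-pyranoside (400 uM) reacts 20 min at room temperature in pH 5.0 buffer; liberated 4-methylumbelliferone is read at 440 nm.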
Potency is read from the fitted curve at half-maximal effect; tags tell the direction and shape of the fitted curve.

Activity change, negative = inhibition, inconclusive:
COc1ccc(C(=O)C2CCCN(C(=O)c3noc4c3CCCC4)C2)c(C)c1 (centres undefined) -15.5% [inhibitor], C/C(Cn1nnc2ccccc21)=N\OC(=O)c1cc(F)c(F)cc1Cl 15% [activator], CCOCCCNC(=O)CN1C(=O)/C(=C/c2ccccc2)Sc2ccccc21 17.8% [activator], Cc1cc(-c2nn3c(-c4ccccc4)nnc3s2)c2ccccc2n1 -21.3% [inhibitor], CCOC(=O)c1ccc(NC(=O)N2CCN(CCc3ccccc3)CC2)cc1 -16.3% [inhibitor], CC1=C(C(=O)Nc2ccccc2C)C(c2ccc(C)o2)N2C(=O)CSC2=N1 (centres undefined) -16.9% [inhibitor], O=C(C1CCN(C2CCN(Cc3ccc4cc(F)ccc4n3)CC2)CC1)N1CCCC1 9.89% [activator], CCOc1ccc(NC(=O)Nc2ccccc2SC)cc1 3.94% [activator], COC(=O)c1ccc(NC(=O)CCN2C(=O)CSC2=O)cc1 16.3% [activator], O=C(CSc1nnnn1C1CCCC1)Nc1ccccc1N1CCOCC1 11.3% [activator], O=C(NCc1ccco1)c1cnn2c(C(F)F)cc(-c3ccccc3)nc12 -15.8% [inhibitor], CCCCCSc1nc(N2CCOCC2)c2c(c1C#N)CC(C)(C)OC2 -16.9% [inhibitor]

Activity change, negative = inhibition, inactive:
COc1ccc(-c2nc3ncccn3c2Nc2ccccc2)cc1 -4.22%, CCCNC(=S)Nc1ccc(Nc2ccccc2)cc1 -1.62%, c1ccc(-n2c(SCc3ccncc3)nnc2-c2ccco2)cc1 -0.465%, FC(F)(F)c1ccccc1NC(=S)Nc1cccc2cnccc12 2.03%

Potency, inconclusive:
CCCC(=O)Nc1c2c(nc3ccccc13)N(c1ccccc1)CC2 20 µM [activator, partial curve], Cc1ccc(N(Cc2cc3ccccc3[nH]c2=O)C(=O)c2cccs2)cc1 0.178 µM [inhibitor, full curve, poor fit], COc1cccc(-c2nc(CSCC(=O)N3CCc4ccccc43)c(C)o2)c1 50.1 µM [inhibitor, single point], CCCN(CC(=O)Nc1ccc(Cl)cc1Cl)C(=O)/C=C/c1cc(OC)ccc1OC 31.6 µM [activator, partial curve], O=C(O)C1CSC(c2coc3ccccc3c2=O)N1 (centres undefined) 56.2 µM [activator, single point], CCCn1c(=O)c2c(C(=O)OCC)cc(-c3ccco3)nc2n(CCC)c1=O 35.5 µM [activator, partial curve], OC(COCc1ccc(Cl)cc1)CN1CCN(c2ccccn2)CC1 (centres undefined) 0.891 µM [inhibitor, full curve, poor fit], COc1ccc(C2Nc3ccccc3C(=O)N2NS(=O)(=O)c2ccccc2)cc1 (centres undefined) 50.1 µM [activator, single point], O=c1[nH]c2cc3c(cc2cc1CN(CCN1CCOCC1)C(=S)NCC1CCCO1)OCO3 (centres undefined) 56.2 µM [activator, partial curve], Cn1c(-c2ccc(C=O)s2)nc2ccccc21 39.8 µM [activator, partial curve], CC1C(C#N)=C(SCC(N)=O)NC2=C1C(=O)CC(C)(C)C2 (centres undefined) 31.6 µM [activator, single point], O=C(Oc1ccc2ccc(=O)oc2c1)C1CCCCC1 35.5 µM [activator, partial curve], COc1ccc(C(=O)Nc2cc(OC)cc(OC)c2)cc1 50.1 µM [inhibitor, single point], COc1cccc(NC(=O)CN(C)C(=O)/C=C/c2cc(OC)ccc2OC)c1 44.7 µM [activator, single point], COc1ccc(CCn2c(N)c(C#N)c3nc4ccccc4nc32)cc1OC 10 µM [activator, single point], Nc1c(S(=O)(=O)c2ccccc2)c2nc3ccccc3nc2n1C1CC1 28.2 µM [activator, partial curve], CCOc1ccc(-c2nc(CSc3nnc(N)s3)cs2)cc1 2.24 µM [inhibitor, partial curve], CCOc1cc(C(=O)Nc2ccc(S(=O)(=O)Nc3cc(C)on3)cc2)cc(OCC)c1OCC 56.2 µM [inhibitor, partial curve, poor fit], C=CC[n+]1c(C)csc1Nc1cccc(Br)c1 44.7 µM [inhibitor, single point], COc1cccc(CNC(=O)c2ccc(S(=O)(=O)N3CCCC3)cc2)c1 28.2 µM [inhibitor, partial curve], Cc1nn(-c2ncc(C(F)(F)F)cc2Cl)c(=O)n1-c1ccccc1F 1.26 µM [inhibitor, full curve, poor fit], CCN(CC)C(=O)COc1ccc2oc(-c3ccco3)cc(=O)c2c1 20 µM [activator, partial curve], C=CCN(c1ccccc1Cl)S(=O)(=O)c1cccc(C(=O)NCCc2ccc(OC)cc2)c1 11.2 µM [inhibitor, single point], CC1=CC(C)[C@H](/C=N/n2c(=O)[nH]c3c([nH]c4ccc(C)cc43)c2=O)C(C)C1 (some centres undefined) 31.6 µM [activator, single point], COc1cc(/C=C2\CC/C(=C\c3ccc(OCCO)c(OC)c3)C2=O)ccc1OCCO 14.1 µM [inhibitor, partial curve, poor fit], C=CCn1c(=NC(=O)c2ccc(S(=O)(=O)N3CCCc4ccccc43)cc2)sc2cc(S(N)(=O)=O)ccc21 5.62 µM [inhibitor, full curve], Cc1cccc(NC(=S)NC2CCCCCC2)c1C 5.01 µM [inhibitor, single point], COc1ccccc1/C=C(/C(=O)OCC(=O)NCc1ccccc1)c1ccccc1 56.2 µM [inhibitor, single point], Cc1ccc2c(c1)nc(-n1nc(C)cc1C)c1nnnn12 3.55 µM [inhibitor, single point], CC(C)CC(=O)NC(=S)Nc1ccc(S(=O)(=O)N2CCN(C)CC2)cc1 3.16 µM [inhibitor, partial curve], CN(C)S(=O)(=O)c1ccc(C(=O)OCn2nnc3ccccc3c2=O)cc1 39.8 µM [inhibitor, partial curve, poor fit], COc1cc(NC(=O)c2cc(OC)c(OC)c(OC)c2)c(OC)cc1NC(=O)CN1CCCCC1 0.158 µM [inhibitor, full curve, poor fit], CC(C)Oc1ccc(C2CC(=O)NC3=C2C(=O)CCC3)cc1 (centres undefined) 56.2 µM [inhibitor, single point], COc1ccc(-n2c(C)nc3c(cnn3-c3ccc(C)c(C)c3)c2=O)cc1 35.5 µM [inhibitor, partial curve], O=c1cc(C(F)(F)F)c2sc(N3CCCCC3)nc2[nH]1 50.1 µM [activator, single point], CCN(CC)S(=O)(=O)N1CCC(C(=O)NC2CCCC2)CC1 12.6 µM [inhibitor, partial curve], COc1cc(/C=C/c2noc(-c3ccccc3O)n2)cc(OC)c1OC 25.1 µM [activator, partial curve], Cc1ccc(S(=O)(=O)N2CCCC2C(=O)O)cc1 (centres undefined) 0.178 µM [activator, full curve, poor fit], COc1ccc(S(=O)(=O)Nc2ccccc2C(F)(F)F)cc1 56.2 µM [inhibitor, single point], Cc1ccc(C(=O)NC(=S)Nc2ccc(N3CCOCC3)cc2)cc1C 56.2 µM [inhibitor, single point], N#CCSc1nnc(COc2cccc3ccccc23)n1-c1cccc(Cl)c1 10 µM [inhibitor, partial curve, poor fit], CCCCNC(=O)c1cc2c(=O)n3cccc(C)c3nc2n(CCN2CCOCC2)c1=N 25.1 µM [activator, partial curve], CCOC(=O)c1ccc(N=c2ssnc2Cl)cc1 11.2 µM [inhibitor, single point], CC1(C)CC(=O)c2cc(OCC(=O)NCC3CCCO3)ccc2O1 (centres undefined) 28.2 µM [activator, partial curve], CC1=NN(C(=S)Nc2ccccc2)C(c2ccccc2)C1 (centres undefined) 1 µM [inhibitor, full curve, poor fit], O=C(NCCO)c1ccc(-c2nnc(N3CCOCC3)c3ccccc23)cc1 56.2 µM [inhibitor, single point], O=Cc1cc(N=Nc2cccc(C(=O)O)c2)ccc1O 35.5 µM [inhibitor, single point], CC1=C(C(=O)OCC2CCCO2)C(c2ccc(O)cc2)NC(=O)N1 (centres undefined) 3.98 µM [inhibitor, partial curve]
